From US20260015418A1 (ABL BIO, published 2026)

Assays:
[1] = target: T1, human ROR1-Fc protein (Sino Biological, 13968-H02H1) (human, UniProt Q01973 fragment); experiment: SPR Biacore T200, ROR1-Fc amine-coupled on CM5, antibody as analyte, bivalent analyte model (Ka1)
T1 construct: Bought protein; also called human ROR1 protein (13968-H02H1, Fc tag)
Experimental: (§1) The binding affinity of both BA6M11(WT)x1A10M12 and BA6M11 (NA)x1A10M12 clones, which are anti-ROR1/anti-4-1BB bispecific antibodies comprising BA6M11 clone, was assessed using surface plasmon resonance (SPR). The antigens used for this assessment were human ROR1 protein (13968-H02H1, Fc tag) from Sino Biological and human 4-1BB protein (9220-4B-100, his tag) from R&D Systems. The measurements were conducted on a Biacore T200 instrument (Cytiva).
(§2) The CM5 chip (Cytiva, BR100530) was coated with a 5 μg/mL human ROR1 protein dilution in Acetate 4.0 (Cytiva, BR100349) using the amine coupling method (Cytiva, BR100050) to achieve a surface density of about 80 RU. […] These diluted antibody samples were then flowed over the human ROR1 protein-immobilized CM5 chip for approximately 60 seconds to conjugate the sample to the antigen, followed by flowing HBS-EP buffer (1×) over the sample-antigen complex for 180 seconds to dissociate the sample from the antigen. […] Binding affinity was analyzed using the bivalent analyte model to derive the primary association rate constant (Ka1) and primary dissociation rate constant (Kd1). The equilibrium dissociation constant (KD) was calculated by dividing the primary dissociation rate constant by the primary association rate constant, and this value was used to represent the final binding affinity.

[2] = target: T1, human ROR1-Fc protein (Sino Biological, …); experiment: SPR Biacore T200, ROR1-Fc amine-coupled on CM5, antibody as analyte, bivalent analyte model (Kd1)
Experimental: as §1, §2

[3] = target: T2, human ROR1 on cells (NCI-N87, CHOK1-hROR1, AGS, CHO-huROR1-huB7-H3) (human, UniProt Q01973 30-937); experiment: flow cytometry on ROR1-positive NCI-N87 cells, FITC-conjugated anti-human IgG (Fc specific)
T2 construct: whole, on cells; also called cell surface ROR1
Experimental: In particular, Jurkat cells overexpressing human 4-1BB (Promega) and NCI-N87 cells, a human ROR1 positive cell line (ATCC), were seeded into V-bottom 96-well plates (96 Well Plate-RV, Bioneer, 910D09) and washed with 200 μl/well of 1% BSA buffer. Fourfold dilutions of the test materials (bispecific antibodies) starting from 100 nM were added to each well and incubated for 1 hour at 4° C. The plates were then washed with 1% BSA buffer. To each well, FITC-conjugated anti-human IgG (Fc specific) (Sigma, F9512) dissolved in 1% BSA buffer was added and incubated for 1 hour at 4° C. The plates were washed again with 1% BSA buffer. The mean fluorescence intensity (MFI) of FITC was measured by flow cytometry. Four-parameter logistic curve analysis was performed on the obtained MFI values using GraphPad software.

[4] = target: T1, human ROR1-Fc protein (Sino Biological, …); experiment: SPR Biacore T200, ROR1-Fc amine-coupled on CM5, antibody as analyte, bivalent analyte model (Kd1/Ka1)
Experimental: as §1, §2

[5] = target: T1, human ROR1-Fc protein (Sino Biological, …); experiment: dual-antigen capture ELISA (DACE): plate coated with human ROR1-Fc, antibody titrated, then human 4-1BB-His and anti-His HRP, OD450
Experimental: Briefly, 96-well microtiter plates (NUNC, 446612) were coated overnight at 4° C. with human ROR1-Fc protein (Sinobio, 13968-H02H1) in PBS at 10 ng/well, then the plates were incubated with 1% BSA buffer (1×PBS, 1% (v/v) BSA) at 200 μl/well for 2 hours at 37° C. to prevent nonspecific binding. After blocking nonspecific binding, the wells were washed, and serial dilutions of the bispecific antibody test materials (starting at 100 nM) were added to each well. After incubation for 2 hours at 37° C., the plates were washed with PBS-T (1×PBS/0.05% (v/v) Tween-20). Then, human 4-1BB-His protein (Sinobio, 10041-H08H) dissolved in 1% (v/v) BSA was added to each well at 100 ng/well and incubated for 1 hour at 37° C. After washing the plates with PBS-T, anti-His HRP (Roche, Cat: 11965085001) was added and incubated for 1 hour at 37° C. After washing, color development was conducted TMB (tetramethylbenzidine, Sigma, T0440) and the reaction was stopped with 0.5M sulfuric acid (Samchun Chemicals, S1410), followed by reading absorbance (OD) at 450-650 nm in a spectrophotometer. Four-parameter logistic curve analysis was performed using GraphPad software.

kon [1]: 241000 M⁻¹ s⁻¹ | koff [2]: 0.00146 s⁻¹ | EC50 (read off the curve) [3]: ~0.2 nM | Kd [4]: 6.05 nM | EC50 (read off the curve) [5]: ~0.4 nM
B1: BA6M11(WT)x1A10M12 anti-ROR1/anti-4-1BB bispecific antibody (bispecific antibody, human IgG1, lambda)
heavy: EVQLLESGGGLVQPGGSLRLSCAASGFTFSNYDMSWVRQAPGKGLEWVSAIYHSGSSKYYADSVKGRFTISRDNSKNTLYLQMNSLRAEDTAVYYCARGGSGAWDTGFDYWGQGTLVTVSS[human IgG1 constant region not shown]GSGSGSGSGSGSGSGSGSQSVLTQPPSASGTPGQRVTISCSGSSSNIGNNYVTWYQQLPGTAPKLLIYADSHRPSGVPDRFSGSKSGTSASLAISGLRSEDEADYYCATWDYSLSGYVFGCGTKLTVLGGGGSGGGGSGGGGSGGGGSEVQLLESGGGLVQPGGSLRLSCAASGFTFSSYDMSWVRQAPGKCLEWVSWISYSGGSIYYADSVKGRFTISRDNSKNTLYLQMNSLRAEDTAVYYCARDAQRNSMREFDYWGQGTLVTVSS
light: QSVLTQPPSASGTPGQRVTISCSGSSSNIGSNDVSWYQQLPGTAPKLLIYYENNRPSGVPDRFSGSKSGTSASLAISGLRSEDEADYYCGAWDDSLSGYVFGGGTKLTVLGQPKAAPSVTLFPPSSEELQANKATLVCLISDFYPGAVTVAWKADSSPVKAGVETTTPSKQSNNKYAASSYLSLTPEQWKSHRSYSCQVTHEGSTVEKTVAPAECS
notes: also called BA6M11(WT)×1A10M12
